Results as given in PubChem BioAssay AID463173 (ICCB-Longwood Screening Facility, Harvard Medical School, 2010).
Out of some 52,000 compounds screened, about 4,300 (8.3%) were called active. No stated cut-off is given here; in the data, active means survival mostly below about 52% (no sharp cut-off); inactive means mostly above about 56%. The list shows a part of the results.

test system: DeltatarO mutant; assay: S. aureus survival, RN4220 and DeltatarO strains – OD600, teichoic acid synthesis inhibitors, primary screen (AID 463173); conditions: S. aureus RN4220 wild type/DeltatarO growth, OD600, 18 h, stronger effect = lower value, screened at 18.75 µg/mL (by protocol)

Structure (SMILES)	survival
Cc1noc(/C=C/c2cccs2)c1S(=O)(=O)N1CCC(C(=O)NCc2ccccc2Cl)CC1	inactive: 82%
CCOCCCNc1ncnc2onc(C)c12	inactive: 79%
Cc1ccc(Cl)cc1N1CCN(S(=O)(=O)c2ccc3c(c2)CC(C)N3C(=O)C2CCC2)CC1 (centres undefined)	inactive: 107%
CC(=O)c1ccc(NC(=O)c2sc(-n3nc(C)c(Cc4ccccc4)c3C)nc2C)cc1	inactive: 67%
Cc1cccc(NC(=O)Nc2nnc(N(C)Cc3ccccc3)s2)c1	inactive: 81%
COc1ccc(-c2nn3c(-c4ccccc4C)nnc3c3ccccc23)cc1	active: 2%
CN(C(=O)Cn1cc(S(=O)(=O)Cc2ccccc2Cl)c2ccccc21)c1ccccc1	inactive: 124%
CCOC(=O)c1cnc(SCC)[nH]c1=O	active: 41%
Cn1c(=O)c2c(ncn2CC(=O)Nc2cccc(Cl)c2Cl)n(C)c1=O	inactive: 88%
CNC(=O)C1CC(=O)N(Cc2ccc(F)cc2)C(=Nc2ccc(F)cc2)S1 (centres undefined)	inactive: 73%
COCC(=O)N(Cc1cc2cc3c(cc2nc1Cl)OCO3)CC1CCCO1 (centres undefined)	inactive: 92%
CCOc1ccccc1NC(=O)N1CCc2c(sc(C)c2CC)C1c1ccccc1 (centres undefined)	inactive: 92%
COc1ccc(CNc2ncnc3onc(-c4ccc(F)cc4)c23)cc1	inactive: 89%
CCCCNC(=O)CCCn1c(=O)c2ccccc2n(CC(=O)Nc2ccccc2OCC)c1=O	inactive: 89%
COc1cc(/C=C(\C#N)c2nc3ccccc3[nH]2)ccc1OCc1cccc(C(F)(F)F)c1	inactive: 63%
CCCc1cnc2c(c1SCC(=O)Nc1ccc(C)c(Cl)c1)c(=O)n(C)c(=O)n2C	inactive: 77%
CCOc1ccccc1NC(=O)c1ccc(F)c(S(=O)(=O)NCc2ccc3c(c2)OCO3)c1	inactive: 67%
COc1cc(-c2nc3nc(C)cc(C)n3c2Nc2ccc(Cl)cc2)ccc1O	inactive: 64%
COc1ccc2[nH]c(=O)c(CN(Cc3cccs3)S(=O)(=O)c3cccc4nsnc34)cc2c1	inactive: 113%
COc1ccc(C(=O)Nc2ccc(-c3nnc4n3CCCCC4)cc2)cc1OC	inactive: 57%
COc1ccc(Cn2c(C(=O)O)c(CNCc3ccc(C)o3)c3ccc(C)cc32)cc1	inactive: 88%
CCOC(=O)Nc1ccc2c(c1)Nc1ccccc1S2	inactive: 80%
O=C(c1cc2ccc3cccnc3c2[nH]1)N1CCN(c2ccccc2)CC1	inactive: 75%

Structure (SMILES)	survival
CCOc1ccccc1NC(=O)Cn1c(=O)ccc2cc(S(=O)(=O)N3CCCC3)ccc21	active: 0%
CC(=O)N1CCc2nc3sc(C(=O)Nc4ccc(Cl)cc4F)c(N)c3c(C(F)(F)F)c2C1	inactive: 75%
CCOc1ccccc1C(=O)NC1CCN(Cc2nnnn2C2CCCC2)CC1	inactive: 95%
CC(Oc1ccccc1)C(=O)Nc1nnc2n1CCS2 (centres undefined)	inactive: 74%
CCCn1c2ccccc2c2cnn(CC(=O)N(CCCOC)Cc3ccco3)c(=O)c21	inactive: 88%
Oc1ccccc1-c1nc(/C=C/c2ccc(F)cc2)nn1-c1ccccc1	active: 26%
CC(=O)c1ccc(N2CCN(S(=O)(=O)c3ccc4c(c3)C(C)(C)C(=O)N4)CC2)cc1	inactive: 64%
COc1cccc(/C=C/C(=O)Nc2ccc3nc(N4CCN(C)CC4)cc(C)c3c2)c1OC	inactive: 79%
CC(C)c1nc2ccc(C(=O)NC(C)c3ccccc3)cc2o1 (centres undefined)	inactive: 112%
Cc1cccc(NC(=O)N2CCCC2C(=O)Nc2ccccc2)c1 (centres undefined)	inactive: 108%
O=C(NC1CCCC1)c1ccc(CSc2nc3cccnc3n2Cc2ccc(F)cc2)cc1	inactive: 63%
CCOC(=O)c1ccc2ncc3c(-c4ccccc4)nn(-c4ccc(F)c(Cl)c4)c3c2c1	inactive: 123%
O=S1(=O)c2ccccc2N(Cc2cccc(Cl)c2)c2ccccc21	active: 0%
COc1cccc(CNC(=O)C2CCN(c3nnc(-n4c(C)ccc4C)s3)CC2)c1OC	inactive: 96%
CCOc1ccc(-c2nc(CSCC(=O)NCc3ccc(Cl)cc3)c(C)o2)cc1	inactive: 95%
CCN(CC)CCNC(=O)c1ccc2c(=O)n3nc(Nc4ccccc4OC)sc3nc2c1	inactive: 124%
CC(=O)c1cc2c(cc1N/C(=N/S(=O)(=O)c1ccc(C)cc1)c1ccc(F)cc1)OCO2	inactive: 83%
Cc1cc(NC(=O)CNCC2CCCCC2)no1	inactive: 108%
CC(C)CC(c1nnnn1C1CCCC1)N1CCC(C(N)=O)CC1 (centres undefined)	inactive: 91%
Cc1c(C(=O)N2CCN(c3ccccc3)CC2)sc2nc3n(c(=O)c12)CCC3	inactive: 84%
CC(C)CCNC(=O)CN1C(=O)CSc2ccc(S(=O)(=O)N3CCCCC3)cc21	inactive: 80%
CCc1ccc(S(=O)(=O)c2nnn3c2nc(NC(C)C)c2sccc23)cc1	inactive: 83%
COc1ccc(CCNC(=O)c2ccc3c(c2)ncn3-c2ccc(C)cc2C)cc1OC	inactive: 117%

Structure (SMILES)	survival
Cc1cc(C(=O)NCc2ccccc2Cl)c2c(C)nn(-c3ccccc3)c2n1	inactive: 82%
COc1cc(NC(=O)CSc2ncccc2C(=O)OC(C)C)cc(OC)c1	inactive: 78%
COc1ccc(CCNC(=O)CS(=O)Cc2nc(-c3ccccc3F)oc2C)cc1OC (centres undefined)	inactive: 83%
COc1ccc(-c2nc(SCCOc3ccccc3Cl)n3[nH]c(=O)cc3n2)cc1	inactive: 78%
CCN1C(C(=O)c2ccccc2)=C(OC(=O)c2ccccc2OC)c2ccccc2S1(=O)=O	inactive: 89%
CCOc1ccc(N2CC(NC(=O)c3ccc(S(=O)(=O)N4CCCCC4)cc3)CC2=O)cc1 (centres undefined)	inactive: 79%
CCOc1ccccc1NC(=O)c1c(NC(=O)c2cccc(C)c2)sc2c1CCC2	inactive: 74%
COc1cc(OC)c(NS(=O)(=O)c2ccc3c(c2)CCCN3C(C)=O)cc1Cl	inactive: 83%
CCc1cc2c(cc3c(=O)n(CC(=O)NC4CCC(C)CC4)ncn32)s1 (centres undefined)	inactive: 91%
COc1cc2nc(NCc3ccc(C)cc3)n3nc(-c4ccccc4)nc3c2cc1OC	inactive: 61%
Cc1ccc(NC(=O)c2ccc(-n3c(C)nnc3C)cc2)cc1F	inactive: 119%
CCOC(=O)c1c(-c2ccc(C)cc2)csc1NC(=O)c1nc(SC(C)C)ncc1Cl	inactive: 61%
CCc1ccccc1NC(=O)C1CCCN(C(=O)c2cnn(-c3ccccc3)c2-n2cccc2)C1 (centres undefined)	inactive: 56%
CCCc1nc(SCc2cc(=O)c3ccc(C)c(C)c3[nH]2)n[nH]1	inactive: 107%
COc1ccc(S(=O)(=O)N2CCN(Cc3nc4ccc(C)cc4o3)CC2)cc1Cl	inactive: 122%
CCC(C(=O)NCCc1ccccc1)n1nc(C)n2c(cc3sccc32)c1=O (centres undefined)	inactive: 77%
Cc1ccc(C)c(N2CCN(C(=O)c3cc4c(=O)n(Cc5ccccc5)ccc4nc3C)CC2)c1	inactive: 78%
Cc1ccc2c(c1)N(C(=O)N1CCC(C(=O)NCCc3ccc(Cl)cc3)CC1)CC(C)O2 (centres undefined)	inactive: 81%
Cc1ccc(-n2nc(C)c3c(C)c(CCC(=O)NCc4ccccc4Cl)c(C)nc32)cc1C	inactive: 64%
CCOc1cccc2c1N[C@@H](c1ccc(C(=O)O)cc1)[C@H]1CC=C[C@@H]21	inactive: 68%
Cc1cccc(NS(=O)(=O)c2ccc3[nH]c4c(c3c2)CCCCCC4)c1	inactive: 76%
Cc1nc2sccn2c(=O)c1S(=O)(=O)Nc1cc(Cl)ccc1O	inactive: 51%
CCOC(=O)c1cc(-c2ccc(F)cc2)n(CC(=O)NC2CCCCCC2)c1C	inactive: 76%

Structure (SMILES)	survival
CC1(C)CC(=O)C=C(NCCc2ccccc2)C1	inactive: 104%
Cc1ccc(CN(Cc2ccco2)C(=O)c2ccc(OCC(C)C)cc2)cc1	inactive: 61%
COc1ccc(NC(=O)c2c(NC(=O)COc3ccccc3)sc3c2CCC(C(C)(C)C)C3)cc1 (centres undefined)	inactive: 75%
C/C(=N/OC(=O)CSc1nc(-c2ccco2)cc(C(F)(F)F)n1)c1ccccc1	inactive: 104%
CCCCN1CCc2nc(Nc3ccc(OC)cc3OC)ncc2C1	inactive: 77%
Cc1nn(-c2ccc(F)cc2)c(-n2cccc2)c1C(=O)NCCc1ccc(Cl)cc1	inactive: 68%
Cc1cc(C)n2nc(CNS(=O)(=O)c3ccc(C)c(C)c3)nc2n1	inactive: 81%
CC(C)OCCCn1c(SCC(=O)c2ccccc2)nc2c(sc3ccccc32)c1=O	inactive: 88%
O=C(C1CCN(S(=O)(=O)c2cccc3nonc23)CC1)N1CCN(c2cccc(Cl)c2)CC1	inactive: 84%
COc1ccc(NC(=O)CSc2nc3nc(C)c(Cc4ccccc4)c(C)n3n2)cc1OC	inactive: 67%
Cc1ccc(Cn2c(=O)c3ccccc3n3c(-c4cccc(O)c4)nnc23)cc1	inactive: 82%
CCN(CC)CCOC(=O)c1ccc(NC(=O)Cn2ncc3c2-c2cc(C)ccc2OC3)cc1	inactive: 68%
Cc1cccc(Cn2cccc2CNS(=O)(=O)c2ccccc2F)c1	active: -2%
CCc1ccc(CNC(=O)Cn2nc(C)n3c(cc4cc(C)ccc43)c2=O)cc1	inactive: 83%
CCc1ccc(NC(=O)CN2C(=O)C(c3ccc(C)cc3)=NC23CCCCC3)cc1	inactive: 82%
COc1ccc(NC(=O)C(Cc2ccccc2)NS(=O)(=O)c2ccc3c(c2)CCC(=O)N3)c(OC)c1 (centres undefined)	inactive: 106%
CCCCOc1ccc(C2=NC(c3ccncc3)=Nc3ccc(OCC)cc3N2)cc1	inactive: 75%
CCOc1ccccc1CNC(=O)C1CCN(c2nnc(-n3c(C)ccc3C)s2)CC1	inactive: 97%
CCOC(=O)c1cccc(NC(=O)c2cc3ccccn3n2)c1	inactive: 124%
Cc1nonc1OCCNC(=O)C12CC3CC(CC(C3)C1)C2	inactive: 84%
